# The list shows a part of the results. Sequences were assembled here from the parent chain. Values near 0.05 are background.
# B1: TEV protease; numbered along this chain (parent)
# chain: MGESLFKGPRDYNPISSSICHLTNESDGHTTSLYGIGFGPFIITNKHLFRRNNGTLVVQSLHGVFKVKDTTTLQQHLVDGRDMIIIRMPKDFPPFPQKLKFREPQREERICLVTTNFQTKSMSSMVSDTSCTFPSGDGIFWKHWIQTKDGQCGSPLVSTRDGFIVGIHSASNFTNTNNYFTSVPKNFMELLTNQEAQQWVSGWRLNADSVLWGGHKVFMVKPEEPFQPVKEATQL
# Variants of: B1
# Assay: raw area under fraction-flipped curve 0-4 h after induction (AUC4h, not background-subtracted), DNA-recorder readout of cleavage of the substrate (dimensionless); higher = more cleavage of the substrate by the protease variant
# Settings: temperature: 34 °C; time window: 0-4 h after rhamnose induction
# Procedure: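 In vivo DNA recorder in E. coli TOP10(DE3) ΔrhaA at 34 °C. Each TEVp single-site mutant (parent TEVp 0) is paired with a single-site variant of the 7-mer TEVs (canonical ENLYFQ|S). The substrate sits between flexible linkers in a Bxb1-sfGFP-TEVs-SsrA fusion, so cleavage stabilises Bxb1 and speeds flipping of a recombination array, read by NGS. The value is the raw area under the fraction-flipped curve over 0-4 h after rhamnose induction (AUC4h), with ≥20 reads per time point. It is not background-subtracted; inactive controls average about 0.047.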
# 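Further: Bxb1 expression induced with 0.2% (w/v) L-rhamnose at OD600 near 0.5, cultures sampled hourly, flipped fraction per protease–substrate barcode pair counted by paired-end Illumina sequencing.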
Variant,area with substrate ENLYAQS,area with substrate ENLYEQS,area with substrate ENLYGQS,area with substrate ENLYHQS,area with substrate ENLYKQS,area with substrate ENLYLQS,area with substrate ENLYQQS,area with substrate ENLYTQS,area with substrate ENLYNQS,area with substrate ENLYPQS,area with substrate ENLYRQS,area with substrate ENLYSQS,area with substrate ENLYDQS,area with substrate ENLYIQS,area with substrate ENLYMQS,area with substrate ENLYVQS,area with substrate ENLYWQS,area with substrate ENLYYQS,area with substrate ENLYCQS
V67N,0.0716,0.0457,0.0754,0.0585,0.0631,0.0759,0.0397,0.0852,–,–,–,–,–,–,–,–,–,–,–
V67I,0.0861,–,0.0529,0.0777,0.0676,–,0.062,–,0.071,0.0656,0.0606,0.0766,–,–,–,–,–,–,–
Q74M,0.0687,0.0584,0.0605,0.0642,0.0619,0.111,0.0695,–,0.0713,0.049,0.0699,–,0.0686,0.0989,0.0705,0.0994,0.0739,0.0874,–
Q74A,0.0789,–,0.0685,0.0777,0.0656,–,0.0442,0.0906,0.063,0.0639,0.0665,–,0.0574,–,0.102,–,0.0797,0.0744,0.0816
R87I,0.0439,0.0585,0.0553,0.0611,0.0379,0.0633,–,–,0.0646,0.0704,0.0503,0.066,0.0645,0.0707,0.0707,0.0978,0.0668,0.0594,–
R87A,0.0844,–,0.0545,–,0.0438,–,–,–,–,–,0.0649,–,–,–,0.0798,0.103,–,–,–
R87F,0.0606,0.0739,0.0619,0.0528,0.0543,–,0.0712,–,0.065,0.0685,0.0528,0.0558,0.0664,0.132,0.0846,–,0.0782,–,–
F38Q,0.0618,0.0653,0.0657,0.0632,0.0542,–,0.0493,0.0504,0.0618,0.0903,–,0.0458,0.0571,0.124,0.0758,0.117,0.0809,0.0596,–
Y34S,0.0927,–,0.0678,0.0636,0.021,0.0667,–,0.0644,–,–,0.0522,–,–,0.114,–,0.0746,–,0.0512,0.0774
Q59D,0.0802,0.063,–,0.0375,–,–,–,0.0979,–,0.0709,0.1,–,–,–,0.0513,0.124,–,–,–
V78L,0.0718,0.0676,0.0709,0.0605,0.0502,–,0.0649,0.0921,–,–,0.066,–,0.047,–,–,0.127,0.0734,0.0489,–
V78R,0.0511,0.0551,–,0.0488,0.0654,–,0.0562,0.0529,0.0557,–,–,–,0.0505,–,–,0.0499,–,0.0453,–
L77C,0.113,0.063,0.0576,0.0631,0.0697,0.0434,0.0685,–,0.0594,–,0.0717,–,–,0.0726,–,0.0766,0.0673,0.0545,–
K68G,0.0785,–,0.0596,–,0.085,–,–,0.101,–,0.0664,0.0549,0.112,–,–,–,–,0.0821,0.0577,–
K68P,0.0739,0.0701,–,0.0662,0.0425,0.0913,0.051,–,0.0748,0.0696,0.0568,–,0.0601,0.146,0.0747,–,0.103,–,–
D91K,0.0508,0.0868,0.0608,0.0876,0.061,–,0.0667,–,0.0617,0.0586,0.0603,0.086,–,0.133,–,0.112,–,0.0417,0.0757

Variant,area with substrate ENLYAQS,area with substrate ENLYEQS,area with substrate ENLYGQS,area with substrate ENLYHQS,area with substrate ENLYKQS,area with substrate ENLYLQS,area with substrate ENLYQQS,area with substrate ENLYTQS,area with substrate ENLYNQS,area with substrate ENLYPQS,area with substrate ENLYRQS,area with substrate ENLYSQS,area with substrate ENLYDQS,area with substrate ENLYIQS,area with substrate ENLYMQS,area with substrate ENLYVQS,area with substrate ENLYWQS,area with substrate ENLYYQS,area with substrate ENLYCQS
D91R,0.0598,–,0.0516,–,–,–,–,–,–,–,–,–,–,–,–,–,–,–,–
D91N,0.0858,0.0698,–,–,–,–,–,0.0757,–,–,–,–,–,0.149,0.104,0.0618,0.103,–,–
D91I,0.0779,0.0591,–,–,0.0537,–,0.0537,–,–,–,0.061,0.0101,–,0.112,–,–,–,0.0487,–
I42K,0.0591,0.0428,0.0457,0.0476,0.0399,0.0376,0.0509,–,0.0529,0.0464,0.0457,0.045,0.0483,0.0424,0.046,–,0.0395,0.0465,–
R50G,0.0715,0.0628,0.0629,0.0647,0.0626,0.0711,–,0.0657,0.0636,0.0688,–,–,0.0613,0.123,0.0853,–,0.0627,0.0562,0.0782
R50M,0.0804,0.0648,0.0728,0.0939,–,0.124,–,–,–,0.0812,0.0624,–,–,–,0.0657,–,0.107,–,–
I86T,0.0689,0.0519,0.0317,0.0741,–,–,–,0.055,–,0.065,–,–,0.054,0.0551,–,–,–,0.0509,0.0466
F41H,0.0721,0.061,0.0618,0.064,–,0.0885,0.0563,–,0.0621,0.0892,0.0585,–,0.0587,–,0.0817,–,0.0881,–,–
N52E,0.0732,0.0634,0.0628,0.0686,0.0593,–,0.0711,0.0836,0.0639,–,0.0619,0.0593,–,–,0.054,–,0.0571,0.0604,–
N52A,0.0774,0.053,0.0581,0.0627,0.0613,–,0.056,0.0643,0.0467,–,–,–,–,–,–,0.0757,–,0.0609,–
G80S,0.076,0.0704,0.0616,–,0.0909,0.0775,–,–,0.0701,–,0.0499,–,0.0718,–,0.102,–,0.0802,0.0784,–
K90S,0.0721,0.0552,0.0689,0.0601,0.0782,–,–,0.0766,0.0589,0.0632,0.0669,–,0.042,0.0984,0.0576,0.139,0.0665,0.0554,–
K90N,0.0786,0.0635,0.0368,0.0638,–,0.105,0.0729,0.0864,–,0.0559,–,0.0687,–,–,–,–,0.0796,–,–
T70P,0.0616,0.0572,0.0704,0.0435,–,0.0581,–,–,0.047,0.0577,0.0659,0.0606,0.057,0.0618,0.0629,0.114,0.0556,–,0.0554
D82A,0.068,–,–,0.0599,–,0.0509,–,–,–,–,0.0656,–,0.0807,–,–,0.0521,0.0523,–,–

# From the supplement of paper PMC12217912
